Results published in article PMC4569408.
No constants are given. Whether binding was seen depends on the method and setting. Binding seen in cells or lysates may run through a third protein. Some results given as binding are weak or reduced against the parent protein; the word gives no strength. Tags and fused reporters may be left off the sequences shown. Each block holds one molecule with its values, some of them ahead of it.

Protein sequences, listed by entry. Tags and fused reporters are not part of them.
UniProt Q43125: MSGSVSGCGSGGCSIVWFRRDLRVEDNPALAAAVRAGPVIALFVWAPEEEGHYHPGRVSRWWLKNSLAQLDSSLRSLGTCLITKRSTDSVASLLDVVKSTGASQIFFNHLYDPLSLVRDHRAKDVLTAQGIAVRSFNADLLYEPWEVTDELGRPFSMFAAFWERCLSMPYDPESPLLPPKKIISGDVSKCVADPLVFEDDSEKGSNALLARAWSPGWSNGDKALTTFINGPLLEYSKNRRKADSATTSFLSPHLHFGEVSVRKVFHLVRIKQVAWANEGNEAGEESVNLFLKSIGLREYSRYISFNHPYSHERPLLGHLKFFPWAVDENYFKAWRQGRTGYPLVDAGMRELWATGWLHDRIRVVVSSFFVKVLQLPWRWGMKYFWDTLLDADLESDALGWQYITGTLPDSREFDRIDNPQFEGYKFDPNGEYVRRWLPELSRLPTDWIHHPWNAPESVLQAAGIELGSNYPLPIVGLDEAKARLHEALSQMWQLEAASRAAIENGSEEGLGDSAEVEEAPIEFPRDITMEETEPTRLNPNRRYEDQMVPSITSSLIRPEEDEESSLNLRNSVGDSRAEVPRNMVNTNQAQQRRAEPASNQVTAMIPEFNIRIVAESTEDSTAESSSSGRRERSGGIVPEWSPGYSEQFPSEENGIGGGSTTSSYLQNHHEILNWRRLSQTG

How the values were obtained:
[1] = target: T1, SPA1-HA (Arabidopsis thaliana) (UniProt Q9SYX2); assay: co-IP; as a1, but 4-day-old dark-grown seedlings kept in darkness (no blue light)
T1 sequence: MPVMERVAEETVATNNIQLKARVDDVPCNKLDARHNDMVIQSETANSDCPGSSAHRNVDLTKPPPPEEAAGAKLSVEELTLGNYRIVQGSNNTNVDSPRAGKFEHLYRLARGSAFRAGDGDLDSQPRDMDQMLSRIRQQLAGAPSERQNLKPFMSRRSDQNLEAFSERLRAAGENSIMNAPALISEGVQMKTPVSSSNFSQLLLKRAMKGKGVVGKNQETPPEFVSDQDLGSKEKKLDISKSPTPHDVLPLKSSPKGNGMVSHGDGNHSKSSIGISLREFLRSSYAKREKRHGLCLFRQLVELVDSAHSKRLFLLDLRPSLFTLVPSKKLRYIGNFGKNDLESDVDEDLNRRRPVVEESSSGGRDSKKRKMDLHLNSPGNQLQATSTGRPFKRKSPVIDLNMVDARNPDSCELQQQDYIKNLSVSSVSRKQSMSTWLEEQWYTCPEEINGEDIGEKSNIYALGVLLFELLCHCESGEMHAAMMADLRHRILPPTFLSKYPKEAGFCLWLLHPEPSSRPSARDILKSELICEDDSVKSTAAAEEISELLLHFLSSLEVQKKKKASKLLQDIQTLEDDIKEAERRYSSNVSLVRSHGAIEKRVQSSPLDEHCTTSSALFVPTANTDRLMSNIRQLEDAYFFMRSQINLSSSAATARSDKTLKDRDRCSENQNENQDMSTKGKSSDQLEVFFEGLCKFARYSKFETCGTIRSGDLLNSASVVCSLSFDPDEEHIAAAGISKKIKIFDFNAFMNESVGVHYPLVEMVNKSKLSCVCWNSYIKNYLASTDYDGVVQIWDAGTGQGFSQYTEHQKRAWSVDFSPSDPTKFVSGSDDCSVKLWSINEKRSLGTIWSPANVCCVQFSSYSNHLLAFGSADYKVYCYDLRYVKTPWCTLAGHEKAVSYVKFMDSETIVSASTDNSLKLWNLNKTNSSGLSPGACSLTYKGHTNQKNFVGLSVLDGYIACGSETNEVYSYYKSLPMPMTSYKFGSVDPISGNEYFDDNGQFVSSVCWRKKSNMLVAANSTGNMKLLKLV

[2] = target: T2, SPA2-HA (Arabidopsis thaliana) (UniProt Q9T014); assay: as above
T2 sequence: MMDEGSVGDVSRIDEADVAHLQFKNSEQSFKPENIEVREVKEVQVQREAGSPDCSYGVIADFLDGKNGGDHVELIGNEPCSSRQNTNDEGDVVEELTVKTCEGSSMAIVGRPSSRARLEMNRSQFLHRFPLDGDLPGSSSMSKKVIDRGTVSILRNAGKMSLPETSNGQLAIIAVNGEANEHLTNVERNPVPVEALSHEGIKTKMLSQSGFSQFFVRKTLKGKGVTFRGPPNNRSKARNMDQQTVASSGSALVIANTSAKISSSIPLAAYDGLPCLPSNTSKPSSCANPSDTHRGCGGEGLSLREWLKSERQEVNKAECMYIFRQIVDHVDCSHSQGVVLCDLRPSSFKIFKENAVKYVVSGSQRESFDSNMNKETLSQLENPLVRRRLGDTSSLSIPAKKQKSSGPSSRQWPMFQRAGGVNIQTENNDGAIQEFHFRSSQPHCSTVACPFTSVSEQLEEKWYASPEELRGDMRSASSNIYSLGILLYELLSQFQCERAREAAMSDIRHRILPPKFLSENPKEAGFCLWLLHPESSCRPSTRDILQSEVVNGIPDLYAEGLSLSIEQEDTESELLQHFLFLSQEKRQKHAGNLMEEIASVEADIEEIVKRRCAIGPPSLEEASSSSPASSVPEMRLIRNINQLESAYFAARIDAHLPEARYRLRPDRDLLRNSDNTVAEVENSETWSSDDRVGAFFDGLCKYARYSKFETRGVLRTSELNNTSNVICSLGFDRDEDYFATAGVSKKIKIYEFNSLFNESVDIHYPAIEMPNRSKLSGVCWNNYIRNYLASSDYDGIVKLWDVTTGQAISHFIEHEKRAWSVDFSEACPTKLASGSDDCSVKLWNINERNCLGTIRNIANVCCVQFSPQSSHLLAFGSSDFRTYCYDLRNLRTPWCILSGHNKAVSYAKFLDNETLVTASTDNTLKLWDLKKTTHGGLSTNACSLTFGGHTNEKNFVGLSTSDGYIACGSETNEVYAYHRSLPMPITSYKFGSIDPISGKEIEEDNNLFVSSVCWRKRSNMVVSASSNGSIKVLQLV

[3] = target: T1, SPA1-HA (Arabidopsis thaliana); assay: co-IP; SPA-HA precipitated with α-HA beads (μMACS) from extracts of 4-day-old dark-grown seedlings transferred to 50 μmol m^-2 s^-1 blue light (1 h for cry1, 5 min for cry2; time course in S2 Fig); seedlings pre-infiltrated with MG132 and clasto-Lactacystin β-lactone; five times more extract for SPA2-HA than for SPA1-HA; cry1 and cry2 detected by blot
[4] = target: T2, SPA2-HA (Arabidopsis thaliana); assay: as above
[5] = target: T3, SPA2-HA (Arabidopsis thaliana), Q9T014; assay: co-IP; as a1, but 4-day-old dark-grown seedlings kept in darkness (no blue light); details: remark: other sources report otherwise
T3 chain: T2 sequence

[6] = target: T3, SPA2-HA (Arabidopsis thaliana), Q9T014; assay: co-IP; SPA-HA precipitated with α-HA beads (μMACS) from extracts of 4-day-old dark-grown seedlings transferred to 50 μmol m^-2 s^-1 blue light (1 h for cry1, 5 min for cry2; time course in S2 Fig); seedlings pre-infiltrated with MG132 and clasto-Lactacystin β-lactone; five times more extract for SPA2-HA than for SPA1-HA; cry1 and cry2 detected by blot; details: remark: other sources report otherwise

binding [1]: binds weakly
binding [2]: binds weakly
binding [3]: binds
binding [4]: binds
Molecule: cryptochrome 1 (from UniProt Q43125 1-681)

binding [3]: binds
Molecule: cryptochrome 2 (from UniProt Q96524 1-612)
binding [1]: no binding (condition: in darkness (without blue light))

binding [5]: no binding
binding [6]: no binding
B1: cryptochrome 2, Q96524 1-612 (protein)
chain: MKMDKKTIVWFRRDLRIEDNPALAAAAHEGSVFPVFIWCPEEEGQFYPGRASRWWMKQSLAHLSQSLKALGSDLTLIKTHNTISAILDCIRVTGATKVVFNHLYDPVSLVRDHTVKEKLVERGISVQSYNGDLLYEPWEIYCEKGKPFTSFNSYWKKCLDMSIESVMLPPPWRLMPITAAAEAIWACSIEELGLENEAEKPSNALLTRAWSPGWSNADKLLNEFIEKQLIDYAKNSKKVVGNSTSLLSPYLHFGEISVRHVFQCARMKQIIWARDKNSEGEESADLFLRGIGLREYSRYICFNFPFTHEQSLLSHLRFFPWDADVDKFKAWRQGRTGYPLVDAGMRELWATGWMHNRIRVIVSSFAVKFLLLPWKWGMKYFWDTLLDADLECDILGWQYISGSIPDGHELDRLDNPALQGAKYDPEGEYIRQWLPELARLPTEWIHHPWDAPLTVLKASGVELGTNYAKPIVDIDTARELLAKAISRTREAQIMIGAAPDEIVADSFEALGANTIKEPGLCPSVSSNDQQVPSAVRYNGSKRVKPEEEEERDMKKSRGFDERELFSTAESSSSSSVFFVSQSCSLASEGKNLEGIQDSSDQITTSLGKNGCK
